The source of these data is publication PMC2363329, “Interaction of the PA2G4 (EBP1) protein with ErbB-3 and regulation of this binding by heregulin” (British Journal of Cancer, 2000).

Experiment [1] deals with T1, Alanine scanning mutant A1 of GST/ErbB-3 (665-690) (rat) (UniProt Q62799).
T1 sequence: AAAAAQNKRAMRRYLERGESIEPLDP
Nature of the experiment: pull-down; equal amounts of purified GST or GST-erbB3 fusion proteins incubated with in vitro translated 35S-labelled Ebp1 at 4C for 2 h; SDS-PAGE and autoradiography; only the target purified.

The target in experiment [2] is T2, Alanine scanning mutant A2 of GST/ErbB-3 (665-690) (rat) (UniProt Q62799).
T2 sequence: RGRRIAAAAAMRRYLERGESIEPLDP
Described as above.

For experiment [3], the target named is T3, Alanine scanning mutant A3 of GST/ErbB-3 (665-690) (rat) (UniProt Q62799).
T3 sequence: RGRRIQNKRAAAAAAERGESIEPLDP
The description is as above.

For experiment [4], the target named is T4, Alanine scanning mutant A4 of GST/ErbB-3 (665-690) (rat) (UniProt Q62799).
T4 sequence: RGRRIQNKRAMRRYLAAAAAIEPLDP
The experiment is described as above.

The target of experiment [5] is T5, GST-ErbB-3 (aa 665-1339) fusion protein (rat) (UniProt Q62799).
T5 sequence: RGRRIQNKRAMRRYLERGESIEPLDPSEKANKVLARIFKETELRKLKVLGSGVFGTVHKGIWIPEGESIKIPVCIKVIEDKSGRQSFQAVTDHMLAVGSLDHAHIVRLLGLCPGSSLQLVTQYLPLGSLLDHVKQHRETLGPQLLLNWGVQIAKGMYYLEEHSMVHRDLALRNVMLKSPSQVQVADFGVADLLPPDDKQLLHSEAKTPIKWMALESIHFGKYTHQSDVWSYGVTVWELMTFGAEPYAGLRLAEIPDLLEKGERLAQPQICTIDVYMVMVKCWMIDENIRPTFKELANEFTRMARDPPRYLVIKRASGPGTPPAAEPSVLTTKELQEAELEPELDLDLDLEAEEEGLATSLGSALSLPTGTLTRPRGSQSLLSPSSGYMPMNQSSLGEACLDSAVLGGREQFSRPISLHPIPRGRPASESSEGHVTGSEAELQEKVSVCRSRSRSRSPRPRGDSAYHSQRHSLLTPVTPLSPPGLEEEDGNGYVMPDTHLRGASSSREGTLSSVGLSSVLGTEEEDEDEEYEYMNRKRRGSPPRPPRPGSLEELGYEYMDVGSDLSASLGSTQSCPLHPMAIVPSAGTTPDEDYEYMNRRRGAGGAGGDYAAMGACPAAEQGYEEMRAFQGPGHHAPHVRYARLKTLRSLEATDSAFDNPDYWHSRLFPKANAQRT
Described as above.

Experiment [6] addresses T6, GST-ErbB-3 (aa 665-690) (rat).
T6 sequence: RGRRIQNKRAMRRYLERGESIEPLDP
The experiment is described as above.

Experiment [7] addresses T7, GST-ErbB3 (aa 756-1339) (rat) (UniProt Q62799).
T7 sequence: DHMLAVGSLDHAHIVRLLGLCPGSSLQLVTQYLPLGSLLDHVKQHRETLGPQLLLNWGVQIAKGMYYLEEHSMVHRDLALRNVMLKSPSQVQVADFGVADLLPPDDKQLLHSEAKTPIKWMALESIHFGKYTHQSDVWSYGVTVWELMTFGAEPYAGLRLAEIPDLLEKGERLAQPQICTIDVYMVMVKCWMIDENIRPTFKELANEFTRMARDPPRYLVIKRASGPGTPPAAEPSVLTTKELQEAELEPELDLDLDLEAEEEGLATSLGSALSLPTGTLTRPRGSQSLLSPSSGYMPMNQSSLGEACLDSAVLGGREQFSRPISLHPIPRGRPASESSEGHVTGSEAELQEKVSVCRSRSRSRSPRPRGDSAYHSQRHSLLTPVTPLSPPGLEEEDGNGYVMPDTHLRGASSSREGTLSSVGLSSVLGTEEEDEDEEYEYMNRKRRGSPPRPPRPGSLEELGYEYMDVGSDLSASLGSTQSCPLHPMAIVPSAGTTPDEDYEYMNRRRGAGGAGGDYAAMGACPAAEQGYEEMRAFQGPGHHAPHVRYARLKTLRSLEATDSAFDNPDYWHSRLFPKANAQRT
The experiment is described as above.

Experiment [8] deals with T8, GST/erbB3 (665-711) (rat) (UniProt Q62799).
T8 sequence: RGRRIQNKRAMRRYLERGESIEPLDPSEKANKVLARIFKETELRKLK
The experiment is described as above.

Experiment [9] concerns the target T9, GST/erbB3 (665-732) (rat) (UniProt Q62799).
T9 sequence: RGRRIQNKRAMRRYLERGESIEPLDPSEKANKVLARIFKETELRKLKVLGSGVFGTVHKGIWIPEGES
The experiment is described as above.

Experiment [10] has as its target T10, GST/erbB3 (665-756) (rat) (UniProt Q62799).
T10 sequence: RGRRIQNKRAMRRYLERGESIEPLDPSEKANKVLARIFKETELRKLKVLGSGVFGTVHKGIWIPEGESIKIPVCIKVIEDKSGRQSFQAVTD
Described as above.

Experiment [11] concerns the target T6, GST-ErbB-3 (aa 665-690) (rat). The experiment can be described thus: pull-down; competition: in vitro translated 35S-Ebp1 incubated with GST-ErbB-3 (aa 665-690) in the presence of 75-, 250-, 500- or 1000-fold excess of ErbB-3 peptide (aa 665-690); the pair that is blocked; only the target purified.

Results are given in words; binding and its absence hold for the method and conditions named. Binding seen in cells or lysates may run through a third protein. Some results given as binding are weak or reduced against the parent protein; the word gives no strength. Where a sequence is shown, tags or fusion partners need not be part of it.

B1: 35S-labelled in vitro translation product of pBK/Ebp1 (amino acids 1-373 of Ebp1) (domain or fragment, UniProt Q9UQ80 1-373)
chain: MSGEDEQQEQTIAEDLVVTKYKMGGDIANRVLRSLVEASSSGVSVLSLCEKGDAMIMEETGKIFKKEKEMKKGIAFPTSISVNNCVCHFSPLKSDQDYILKEGDLVKIDLGVHVDGFIANVAHTFVVDVAQGTQVTGRKADVIKAAHLCAEAALRLVKPGNQNTQVTEAWNKVAHSFNCTPIEGMLSHQLKQHVIDGEKTIIQNPTDQQKKDHEKAEFEVHEVYAVDVLVSSGEGKAKDAGQRTTIYKRDPSKQYGLKMKTSRAFFSEVERRFDAMPFTLRAFEDEKKARMGVVECAKHELLQPFNVLYEKEGEFVAQFKFTVLLMPNGPMRITSGPFEPDLYKSEMEVQDAELKALLQSSASRKTQKKKKKK
modifications: 35S-labelled
Regarding B1, the binding result is “no binding” in [1]; “no binding” in [2]; “no binding” in [3]; “binds” in [4]; “binds” in experiment [5]; “binds” in experiment [6]. Besides, the binding entry in [7] was “no binding”; in experiment [8] it was “binds”; in experiment [9] it was “binds”; in experiment [10], “binds”; in experiment [11], “binds”.
